# The RNAGym collection of RNA variant scans (doi:10.7554/elife.90254)
# Read counts are not given, so values of variants with three or more changes are uncertain.
# B1: OR4K15 (parent)
# chain: GUUAACGGUCAUAGGCCAUGGAAACUAGGAGCACCAUUUCGCUGCCAGUGAAGAAAUGAACAAAGAAAAUCUGGGCCAGGCAGGCAUCAAAAGAAAUAGUCUUGCGCUCAACCAGAAAGUCUGUAAUCAUUUUAAGGGUA
# Variants of: B1
# Test: self-cleavage, relative activity (ratio to wild type); higher = more cleavage; in vitro, sequencing; the parent is a self-cleaving ribozyme
row,Variant,self-cleavage
1,GUUAACGGUCAUAGGCCAUGGAAACUAGGAGCACCAUUUCGCUGCCAGUGAAGAAAUGAACAAAGCAAAUCUGGGCCAGGCAGGCAUCAAAGGGAAUAGUCUUGCGCUCAACCAGAAAGUCUGUAAUCAUUUUAAGGGUA [A66C A92G A94G],1.62
2,GUUAACGGUCAUAGGCCAUGGAAACUAGGAGCACCAUUUCGCUGCCUGUGAAGAAAUGAACAAAGAAAAUCUGGGCCAGGCAGGCAUCAAAAGAAAUAGUCUUUCGCUCAACCAGAAGGUCUGUAAUCAUUUUAAGGGUA [A47U G104U A118G],0.02
3,GUUAACGGUCAUAGGCCAUGGAAACUAGGAGCACCAUCUCGCUGCCAGUGAAGGAAUGAACAAAGAAAAUCUGGGCCAGGCAGGCAUCAAAAGAAAUAGUCUUGCGCUCAACCCGAAAGCCUGUAAUCAUUUUAAGGGAG [U38C A54G A114C U120C U139A A140G],0.01
4,GUUAACGGUCAUAGGCCAUGGAAACUAGGAGCACCAUUCCGCUGCCGGUGAAGAGAUGAACAAAGAAAAUCUGGGCCAGGCAGGCAUCAAAAAAAAUAGUCUUGCGCUCAACCAGGAAGUCUGUAAUCAUUUUAAGGGUA [U39C A47G A55G G93A A116G],0.93
5,GUUAGCGGUCAUAGGCCGUGGAAGCUAGGAGCACCAUUUCGCUGCCAGUGAAGAAAUGAACGAAGAAAAUCUGGGCCAGGCAGGCAUCAAAAGAAAUAGUCUUGCGCUCAACCAGAAAGUCUGUAAUCAUUAUAAGGGUA [A5G A18G A24G A62G U132A],1.35
6,GUCAACGGUCAUAGGCCAUGGAAACUAGGAGCACCAUUUCGCUGCCAGUGAAAAAAUGGACAAAGAAAAUCUGGGCCAGGCAGGCAUCAAAAGAAAUAGUCUUGCGCUCAACCUGAAAGUCUGUAAUCAUUUUAAGGGUA [U3C G53A A59G A114U],0.05
7,GUUAACGGUCAUAGGCCAUGGAGACUAGGAGCACCAUUUCGCUGCCAGCGAAGAAAUGAACAAAGAAAAUCUGGGCCAGGCAGGCAGCAAAAGAAAUAGUCUUGCGCUCAACCAGAAAGUCUGUAAUCAUUUUAAGGGUA [A23G U49C U87G],0.4
8,GUUAACGGUCAUAGGCCAUGGAAACUAGGAGCACCAUUUCGCUGCCAGUGAAGAAAUGAACAAAGAAAAUCUGGGCCAGGCAGGCAUCAAAAGAAAUAGUCUUGCGCUCAUCCAGAAAGUCUGUAACCAUUUCAAGGGUA [A111U U127C U133C],0.09
9,GUUAACGGUCAUAGGCCAUGGAAACUAGGAGCACCAUUUCGCUGCCAGUGAAGUAAUGAACAAAGGAAGUCUGGGCCAGGCAGGCAUCAAAAGAAAUAGUCUUGCGCUCAACCAGAAAGUCUGUAAUCAUUUUAAGGGUA [A54U A66G A69G],0.09
10,GCUAACGGUCAUAGGCCAUGGAAGCUAGGAGCACCAUUUCGCUGCCAGUGAAGAAAUGAACAAAGAAAAUCUGGGCCAGGCAGGCAUCAAAGGAAAUAGUCUUGCGCUCAACCAGAAAGUCUGUAAUCAUUUUAAGGGUA [U2C A24G A92G],1.81
11,GUUAACGGUCAUAGGCCAUGGAAACUAGGAGCACCAUUCCGCUGCCAGUGAAGAAAUGAACAAAGAAAAUCAGGGCCAGGCAGGCAUCAAAAGAAAUAGUCUUGCGCUCAACCAGAAAGUCUGUAAUCAUUCUAAGGGUA [U39C U72A U132C],0.13
12,GUUAACGGUCAUAGGCCAUGGAAACUAGGAGCACCAUUUCGCUGCCAGUGAAGAAAUGAGCAAAGAGAUUCUGGGCCAGGCAGGCAUCAAAAGAAAUAGUCUUGCGCUCAACCAGAAAGUCUGUAGUCAUUUUAAGGGUA [A60G A67G A69U A126G],0.83
13,GUUAACGGUCAUAGGCCAUGGAAACUAGGUGCACCAUUUCGCUGCCAGUGAAGAAAUGAACGAAGAAAAUCUGGGCCAGGCAGGCAUCAAAAGAAAUAGUCUUGCGCUCAACCAGAAUGUCUGUAAUCUUUUUAAGGGUA [A30U A62G A118U A129U],0.26
14,GUUAGCGGUCCUAGGCCAUGGAGACUAGGAGCACCAUUUCGCUGCCAGUGAAGAAAUGAACAAAGAAAAUCUGGGCCAGGCAGGCUUCAAAAGAAAUAGUCUUGCGCUCAACCAGAAAGUCUGUAGUCAUUUUAAGGGUA [A5G A11C A23G A86U A126G],0.86
15,GUUAACGGUCAUAGGCCAUGGAAACUAGGAGCACCAUUUCGCUGCCAGUGAAGAAAUGAACAAAGAGAAUCUGGGCCAGGCAGGCAACAAAAGGAAUAGUCAUGCGCUCAACCAGAAAGUCUGUAAUCAUUUUAAGGGUA [A67G U87A A94G U102A],1.37
16,GUUAACGGUCAUAGGCCAUGGAAACUAGGAGCACCAUUUCGCUGCCAGUGAGGCAAUGAACAAAGAAAAUCUGGGCCAGGCAGGCAUCAAAAGAAAUAGUCUUGCGCUCGACCAGAAAGUCUGUAAUCAUUUUAAGGGUA [A52G A54C A110G],0.03
17,GUUAACGGUCAUUGGCCAUGGAAACUAGGAGCACCAUUCCGCUGCCAGUGAAGAAAUGGACAAGGAAAAUCUGGGCCAGGCAGGCAUCAAAAGAAAUAGUCUUGCGCUCAACCUGAAAGUCCGUAAUCAUUUUAAGGGUA [A13U U39C A59G A64G A114U U122C],0.15
18,GUUAACGGUCAUAGGCCAUGGAAACUAGGAGCACCAUAUCGCUGCCAGUGAAGAAAUGAACAAAGAAAAUCUGGGCCAGGCUGGCAUCAAAAGAAGUAGUCUUGCGCUCAGCCAGAAAGUCUGUAAUCAUUUUAAGGGUA [U38A A82U A96G A111G],0.01
19,GUUAACGGUCAUAGGCCAUGGAAACUAGGAGCACCGCUUCGCUGCCAGUGAAGAAAUGAACAAAGGAAAUCAGGGCCAGGCGGGCAUCUAAAGAAAUAGUCUUGCGCUCAACCAGAAAGUCUGUAAUCAUUUUAGGGGUA [A36G U37C A66G U72A A82G A89U A135G],0.11
20,GUUAACGGUCAUAGGCCAUGGAAACUAGGAGCACCAUUUCGCUGCCAGUGAAGAAAUGAACAAAGAAAAUCUGGGCCUGGCAGGCAUCAAAAGAUAUAGACUUGCGCUCAACCAGAAAGUCUGUAAUCAUUUUAAGGGUA [A78U A95U U100A],0.04
21,GUUAGCGGUCAUAGGCCAUGGAAACUAGGAGCACCAUUUCGCUGCCAGUGAAGAAAUGAACAAAGAAAAUCUGGGCCGGGCAGGCAUCAAAAGGAAUAGUCUUGCGCUCAACCAGAAAGUCUGUAAUCAUUUUAAGGGUA [A5G A78G A94G],0.41
